Measured values from patent US20260225997A1, “IONIZABLE AMINE LIPIDS” (Intellia Therapeutics, Inc., priority 2018, published 2026).
Values joined by “and” are separate entries in the source; they are usually repeats but may differ in a detail not shown here. Equal entries are not always repeated. For part of these data: At least one read-out could not be matched to a standard name with certainty. For part of these data: At least one structure is not confirmed: it was looked up by name or label, or the drawing left a doubt.

Columns and labels:
[1] = LNP average particle size and polydispersity by dynamic light scattering (Malvern Zetasizer); assay type: physicochemical
Excerpt: The LNPs have a size of about 1 to about 1,000 nm, about 10 to about 500 nm, about 20 to about 500 nm, in a sub-embodiment about 50 to about 400 nm, in a sub-embodiment about 50 to about 300 nm, in a sub-embodiment about 50 to about 200 nm, and in a sub-embodiment about 50 to about 150 nm, and in another sub-embodiment about 60 to about 120 nm. Preferably, the LNPs have a size from about 60 nm to about 100 nm. The average sizes (diameters) of the fully formed LNP, may be measured by dynamic light scattering on a Malvern Zetasizer. The LNP sample is diluted in phosphate buffered saline (PBS) so that the count rate is approximately 200-400 kcps. The data is presented as a weighted average of the intensity measure.
The LNPs disclosed herein have a size (e.g. Z-average diameter) of about 1 to about 250 nm. In some embodiments, the LNPs have a size of about 10 to about 200 nm. In further embodiments, the LNPs have a size of about 20 to about 150 nm. In some embodiments, the LNPs have a size of about 50 to about 150 nm. In some embodiments, the LNPs have a size of about 50 to about 100 nm. In some embodiments, the LNPs have a size of about 50 to about 120 nm. In some embodiments, the LNPs have a size of about 60 to about 100 nm. In some embodiments, the LNPs have a size of about 75 to about 150 nm. In some embodiments, the LNPs have a size of about 75 to about 120 nm. In some embodiments, the LNPs have a size of about 75 to about 100 nm. Unless indicated otherwise, all sizes referred to herein are the average sizes (diameters) of the fully formed nanoparticles, as measured by dynamic light scattering on a Malvern Zetasizer. The nanoparticle sample is diluted in phosphate buffered saline (PBS) so that the count rate is approximately 200-400 kcps. The data is presented as a weighted-average of the intensity measure (Z-average diameter).
Dynamic Light Scattering (“DLS”) is used to characterize the polydispersity index (“pdi”) and size of the LNPs of the present disclosure. DLS measures the scattering of light that results from subjecting a sample to a light source. PDI, as determined from DLS measurements, represents the distribution of particle size (around the mean particle size) in a population, with a perfectly uniform population having a PDI of zero.
LNP compositions are analyzed for average particle size, polydispersity index (pdi), total RNA content, encapsulation efficiency of RNA, and zeta potential. LNP compositions may be further characterized by lipid analysis, AF4-MALS, NTA, and/or cryo-EM. Average particle size and polydispersity are measured by dynamic light scattering (DLS) using a Malvern Zetasizer DLS instrument. LNP samples were diluted with PBS buffer prior to being measured by DLS. Z-average diameter which is an intensity-based measurement of average particle size was reported along with number average diameter and pdi. A Malvern Zetasizer instrument is also used to measure the zeta potential of the LNP. Samples are diluted 1:17 (50 μL into 800 μL) in 0.1×PBS, pH 7.4 prior to measurement.

B2M = B2M editing in mouse liver by NGS after i.v. LNP delivery of Cas9 mRNA and sgRNA; assay type: in vivo; conditions: Example 54 text: 0.1 mpk vs 0.3 mpk, 7 days
Description: (§1) Preparations of various LNP compositions were prepared with amine lipids. In assays for percent liver editing in mice, Cas9 mRNA and chemically modified sgRNA were formulated in LNPs, at either a 1:1 w/w ratio or a 1:2 w/w ratio. LNPs are formulated with a composition of a given ionizable lipid (e.g. an amine lipid), DSPC, cholesterol, and PEG-2k-DMG, with a 6.0 N:P ratio.
LNPs were administered to mice by a single dose at 0.1 mg/kg, unless otherwise noted and genomic DNA was isolated for NGS analysis as described below.
CD-1 female mice, ranging from 6-10 weeks of age were used in each study. […]
(§2) Cohorts of mice were measured for liver editing by Next-Generation Sequencing (NGS).
(§3) In brief, to quantitatively determine the efficiency of editing at the target location in the genome, genomic DNA was isolated and deep sequencing was utilized to identify the presence of insertions and deletions introduced by gene editing.
(§4) PCR primers were designed around the target site (e.g., B2M), and the genomic area of interest was amplified. […] The reads were aligned to the […] after eliminating those having low quality scores. […]
The editing percentage (e.g., the “editing efficiency” or “percent editing”) is defined as the total number of sequence reads with insertions or deletions over the total number of sequence reads, including wild type. […]

[2] = RNA encapsulation efficiency of LNP (Ribogreen fluorescence assay); assay type: physicochemical; conditions: N:P 6.0
Description: A fluorescence-based assay (Ribogreen®, ThermoFisher Scientific) is used to determine total RNA concentration and free RNA. Encapsulation efficiency is calculated as (Total RNA−Free RNA)/Total RNA. LNP samples are diluted appropriately with 1× TE buffer containing 0.2% Triton-X 100 to determine total RNA or 1× TE buffer to determine free RNA. Standard curves are prepared by utilizing the starting RNA solution used to make the compositions and diluted in 1× TE buffer+/−0.2% Triton-X 100. Diluted RiboGreen® dye (according to the manufacturer's instructions) is then added to each of the standards and samples and allowed to incubate for approximately 10 minutes at room temperature, in the absence of light. A SpectraMax M5 Microplate Reader (Molecular Devices) is used to read the samples with excitation, auto cutoff and emission wavelengths set to 488 nm, 515 nm, and 525 nm respectively. Total RNA and free RNA are determined from the appropriate standard curves.
Encapsulation efficiency is calculated as (Total RNA−Free RNA)/Total RNA. The same procedure may be used for determining the encapsulation efficiency of a DNA-based cargo component. For single-strand DNA Oligreen Dye may be used, and for double-strand DNA, Picogreen Dye.

TTR [3] = assay: TTR editing in mouse liver by NGS after i.v. LNP delivery of Cas9 mRNA and sgRNA; assay type: in vivo; conditions: Example 58: 0.1 mpk i.v., CD-1 female mice, 6 days post-dose, G282 1:1; 0.1 mg/kg
Description: as §1
CD-1 female mice, ranging from 6-10 weeks of age were used in each study. Animals were weighed and grouped according to body weight for preparing dosing solutions based on group average weight. LNPs were dosed via the lateral tail vein in a volume of 0.2 mL per animal (approximately 10 mL per kilogram body weight). […]
as §2, §3, §4
CD-1 female mice were dosed i.v. at 0.1 mpk or 0.3 mpk. […] For animals dosed with G650 targeting B2M, liver was collected and editing was measured.

TTR [4] = assay: Transthyretin (TTR) ELISA analysis of mouse serum after LNP dosing; assay type: in vivo; conditions: Example 58: 0.1 mpk i.v., 6 days post-dose, G282 1:1; 0.1 mg/kg
Description: CD-1 female mice, ranging from 6-10 weeks of age were used in each study. Animals were weighed and grouped according to body weight for preparing dosing solutions based on group average weight. LNPs were dosed via the lateral tail vein in a volume of 0.2 mL per animal (approximately 10 mL per kilogram body weight). The animals were periodically observed post dose for adverse effects for at least 24 hours post dose. Animals were euthanized at 6 or 7 days by exsanguination via cardiac puncture under isoflurane anesthesia. Blood was collected into serum separator tubes or into tubes containing buffered sodium citrate for plasma as described herein. For studies involving in vivo editing, liver tissue was collected from each animal for DNA extraction and analysis.
CD-1 female mice were dosed i.v. at 0.1 mpk or 0.3 mpk. […] For animals dosed with G282 targeting TTR, blood and the liver were collected and serum TTR and editing were measured. For animals dosed with G650 targeting B2M, liver was collected and editing was measured.
Blood was collected and the serum was isolated as indicated. The total mouse TTR serum levels were determined using a Mouse Prealbumin (Transthyretin) ELISA Kit (Aviva Systems Biology, Cat. OKIA00111). Briefly, sera were serial diluted with kit sample diluent to a final dilution of 10,000-fold for 0.1 mpk dose and 2,500-fold for 0.3 mpk. […]

[5] = Table 8, Example 54: LNP, G650 (B2M) 1:1
[6] = Table 20, Example 61: LNP, G282 1:1

SMILES | Num Ave Size (nm) [1, 5] | PDI [1, 5] | Z-Ave Size (nm) [1, 5] | Num Ave Size (nm) [1, 6] | PDI [1, 6] | Z-Ave Size (nm) [1, 6] | dose response of B2M editing in liver (B2M) | Encapsulation (%) ([2]; Table 8, Example 54: LNP, G650 (B2M) 1:1 w/w) | Encapsulation (%) ([2]; Table 20, Example 61: LNP, G282 (TTR) 1:1 w/w) | Editing Mean % Indel (TTR [3]) | Serum TTR (TTR [4]) | Serum TTR % TSS (TTR [4])
CCCCCCCCCOC(=O)CCCCCCCN(CCO)CCCCCCCCCC(OCCCCCCC)OCCCCCCC [Compound 4, nonyl 8-[10, 10-diheptoxydecyl(2-hydroxyethyl)amino]octanoate] | 58.43 nm | 0.056 | 77.33 nm | 68.75 nm | 0.051 | 87.27 nm | increased editing at the 0.3 mpk dose compared to the 0.1 mpk dose | 97% | 97% | – | – | –
CCCCC/C=C\C/C=C\CCCCCCCC(=O)OCC(COC(=O)CCC(OCCCCCCCC)OCCCCCCCC)COC(=O)OCCCN(CC)CC (stereo not drawn) [Compound 19, 3-((4,4-bis(octyloxy)butanoyl)oxy)-2-(((((3-(diethylamino)propoxy))-carbonyl)oxy)methyl)propyl (9Z,12Z)-octadeca-9,12-dienoate, reference compound] | – | – | – | – | – | – | – | – | – | 29.7% and 19.7% | 581 µg/mL and 695 µg/mL | 70% TSS
